Experimental data taken from PubChem BioAssay AID588342 (National Center for Advancing Translational Sciences (NCATS), 2011).
Where “and” joins values, the source holds several entries; their conditions need not be identical. Equal entries are not always repeated. Hit rate of the full screen: of about 360,000 compounds, about 25,000 (6.9%) were called active. The shares of active, inactive and inconclusive entries below differ from those in the screen. Calls follow the shape of the dose curve; as a rule, active = well fitted inhibition curve with a large enough effect; inconclusive = small, poorly fitted or top-dose-only effect; inactive = flat fitted curve, though single readings scatter. Potencies beside an inconclusive call are fits to weak or partial responses and may not hold up.

What follows are compounds tested against Luciferin 4-monooxygenase (Photinus pyralis) (UniProt P08659) (assay: qHTS profiling assay for firefly luciferase inhibitor/activator using purifed enzyme and Km concentrations of substrates (counterscreen for miR-21 project)). Conditions: purified FLuc, luminescence inhibition; series mostly up to 57.5 µM.
Summary of the method: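 Purified P. pyralis luciferase, 10 nM final, with Km-level 10 uM D-luciferin and 10 uM ATP in 50 mM Tris acetate pH 7.5, 10 mM Mg acetate, 0.01% Tween-20, 0.05% BSA; 6-point qHTS titration about 60 µM downward; luminescence read.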
Also: nearly all actives have a fitted effect of over 55% in size.
Potency is read from the fitted curve at half-maximal effect; tags tell the direction and shape of the fitted curve.

Chain of UniProt P08659 (P08659 whole entry, looked up): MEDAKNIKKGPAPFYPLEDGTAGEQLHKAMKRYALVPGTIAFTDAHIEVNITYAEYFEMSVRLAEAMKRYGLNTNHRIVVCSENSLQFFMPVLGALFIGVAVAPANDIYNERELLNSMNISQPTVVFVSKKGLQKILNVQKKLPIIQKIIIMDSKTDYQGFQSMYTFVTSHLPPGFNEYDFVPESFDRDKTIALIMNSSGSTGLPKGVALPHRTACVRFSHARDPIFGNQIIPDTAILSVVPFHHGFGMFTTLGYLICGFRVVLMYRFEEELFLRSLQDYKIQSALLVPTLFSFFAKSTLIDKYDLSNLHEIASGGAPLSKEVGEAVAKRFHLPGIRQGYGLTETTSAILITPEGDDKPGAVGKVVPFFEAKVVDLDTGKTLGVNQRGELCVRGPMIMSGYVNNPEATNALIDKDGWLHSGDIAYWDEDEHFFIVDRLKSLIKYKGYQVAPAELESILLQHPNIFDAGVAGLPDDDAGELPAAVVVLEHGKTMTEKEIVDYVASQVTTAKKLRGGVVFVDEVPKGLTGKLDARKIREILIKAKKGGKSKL

**Q.** With `CCOC(=O)c1cnc(SCC(=O)c2ccc3c(c2)OCCO3)nc1N` as the compound, how does the Potency read?
**A.** Its Potency is active: 21.3 µM.

**Q.** How did the Potency turn out when `Cc1cc2c(s1)c1cnn(-c3ccccc3)c(=O)c1n2C` was run?
**A.** Its Potency is active: 6.75 µM.

**Q.** With `CCOC(=O)C1CCCN(Cc2cc(=O)oc3cc(C)ccc23)C1` (stereo unspecified) as the compound, how does the Potency read?
**A.** The Potency was inconclusive: 26.9 µM [inhibitor, single point].

**Q.** Which Potency does the source give for `Cc1ccc(-n2ncc3c(SCc4ccccn4)ncnc32)c(C)c1` here?
**A.** The Potency was inconclusive: 26.9 µM [inhibitor, single point].

**Q.** For `CC(Oc1ccc2c(-c3ccccc3)cc(=O)oc2c1)C(=O)NCC1CCC(C(=O)O)CC1` (stereo unspecified), which Potency is on record?
**A.** Its Potency is inconclusive: 26.9 µM [inhibitor, partial curve, poor fit] and inconclusive: 21.3 µM [inhibitor, single point].

**Q.** Which Potency does the source give for `O=C(c1cc(Cl)cc(Cl)c1)N1CCN(c2cc(C(F)(F)F)nc3ccccc23)CC1` here?
**A.** Its Potency is “inactive”.

**Q.** For `CCCOc1ccc2c(C)c(CC(=O)OC)c(=O)oc2c1`, which Potency is on record?
**A.** Its Potency is inconclusive: 16.9 µM [inhibitor, partial curve].

**Q.** Which Potency does the source give for `NC(=O)Nc1ccc(C(=O)OCC(=O)Nc2sccc2C(N)=O)cc1` here?
**A.** Its Potency is inconclusive: 6.01 µM [inhibitor, full curve].

**Q.** `COc1cc(/C=C2/C(=O)NN(c3cccc(F)c3)C2=O)ccc1OC(=O)c1ccco1` was tested. Which Potency did it give?
**A.** The Potency was active: 23.9 µM.

**Q.** Which Potency does the source give for `COc1cc(-c2nc(-c3ccc4c(c3)-c3ccccc3S4(=O)=O)c(-c3ccccc3)[nH]2)cc(OC)c1O` here?
**A.** Its Potency is active: 6.75 µM.

**Q.** How did the Potency turn out when `COc1cccc(NC(=O)c2ccc(NC(C)=O)cc2)c1` was run?
**A.** The Potency was inconclusive: 12 µM [inhibitor, partial curve].

**Q.** `Cc1c(Cl)cccc1NC(=O)CCCn1nc(C)c2sc3ccccc3c2c1=O` was tested. Which Potency did it give?
**A.** Its Potency is “inactive”.

**Q.** With `O=C(/C=C/c1ccc(Cl)cc1Cl)NCc1ccco1` as the compound, how does the Potency read?
**A.** The Potency was active: 7.57 µM.

**Q.** How did the Potency turn out when `COc1cccc(N2CCN(c3c4c(nc5nncn35)CCC4)CC2)c1` was run?
**A.** Its Potency is “inactive”.

**Q.** Which Potency does the source give for `COc1cc(C(=O)N/N=C/c2ccccn2)cc(OC)c1OC` here?
**A.** The Potency was “inactive”.

**Q.** For `CCCn1c(C)cc(C(=O)COc2ccc(-c3nnco3)cc2)c1C`, which Potency is on record?
**A.** The Potency was inconclusive: 19 µM [inhibitor, partial curve].

**Q.** With `CC(C)(C)n1cnc2cc(NCc3cccs3)ccc21` as the compound, how does the Potency read?
**A.** Its Potency is active: 12 µM.

**Q.** `COc1cccc(C(=O)COC(=O)CCCC(=O)NC2CCCCC2)c1` was tested. Which Potency did it give?
**A.** The Potency was active: 26.9 µM.

**Q.** How did the Potency turn out when `COc1cccc(-c2c(C(=O)N/N=C/c3ccc(C)s3)nnn2-c2nonc2N)c1` was run?
**A.** The Potency was inconclusive: 37.9 µM [inhibitor, single point].

**Q.** `CSc1nsc(SCC(=O)N2CCc3ccccc32)n1` was tested. Which Potency did it give?
**A.** Its Potency is inconclusive: 26.9 µM [inhibitor, partial curve, poor fit].

**Q.** For `COc1cc(C=O)ccc1OS(=O)(=O)c1ccccc1[N+](=O)[O-]`, which Potency is on record?
**A.** Its Potency is inconclusive: 23.9 µM [inhibitor, single point].

**Q.** How did the Potency turn out when `Cc1ccc(/C=C2\SC(=S)N(CCC(=O)NNC(=O)c3ccc(O)cc3)C2=O)cc1` was run?
**A.** The Potency was inconclusive: 2.39 µM [inhibitor, full curve].

**Q.** For `Brc1ccc(Cn2c(-c3cncs3)nc3ccccc32)cc1`, which Potency is on record?
**A.** Its Potency is inconclusive: 13.5 µM [inhibitor, partial curve, poor fit].

**Q.** `COc1cc(NC(=O)C2CCCCC2)c2ncccc2c1` was tested. Which Potency did it give?
**A.** The Potency was active: 15.1 µM.

**Q.** `CC(C)(C)c1ccc(C(=O)NCC(=O)N/N=C/c2cccs2)cc1` was tested. Which Potency did it give?
**A.** The Potency was inconclusive: 37.9 µM [inhibitor, single point].

**Q.** For `C#CCn1c(=NC(=O)c2cc(-c3cccs3)nc3ccccc23)sc2cc(S(N)(=O)=O)ccc21`, which Potency is on record?
**A.** Its Potency is “inactive”.

**Q.** With `CC1CC1C(=O)OCC(=O)Nc1ccc(N=Nc2ccccc2)cc1` (stereo unspecified) as the compound, how does the Potency read?
**A.** Its Potency is inconclusive: 19 µM [inhibitor, single point].

**Q.** Which Potency does the source give for `Cc1ccc(C2C(C#N)=C(N)Oc3n[nH]c(-c4cccnc4)c32)o1` (stereo unspecified) here?
**A.** The Potency was inconclusive: 19 µM [inhibitor, partial curve, poor fit].

**Q.** For `CCOC(=O)c1ccc(N2C(=O)c3[nH]nc(-c4ccc(C)cc4)c3C2c2ccc(O)c(OCC)c2)cc1` (stereo unspecified), which Potency is on record?
**A.** Its Potency is “inactive”.

**Q.** How did the Potency turn out when `O=C(Nc1cccs1)Nc1c(F)c(F)cc(F)c1F` was run?
**A.** The Potency was “inactive”.

**Q.** Which Potency does the source give for `Cc1ccc(NC(=O)CSc2nnc(CNC(=O)c3ccccc3F)o2)cc1Cl` here?
**A.** The Potency was inconclusive: 30.1 µM [inhibitor, single point].

**Q.** For `C#CCOc1ccc2c3c(c(=O)oc2c1)CCCC3`, which Potency is on record?
**A.** The Potency was inconclusive: 19 µM [inhibitor, partial curve].

**Q.** With `COc1ccc(/C=C/C(=O)OCC(=O)NCc2ccco2)c(OC)c1` as the compound, how does the Potency read?
**A.** The Potency was inconclusive: 37.9 µM [inhibitor, single point].

**Q.** Which Potency does the source give for `Cc1cc2nc(-c3ccc[nH]c3=O)n(Cc3cccc(F)c3)c2cc1C` here?
**A.** Its Potency is inconclusive: 26.9 µM [inhibitor, partial curve, poor fit].

**Q.** Which Potency does the source give for `CSc1nc2nccc(-c3ccc(Oc4ccccc4)cc3)n2n1` here?
**A.** Its Potency is inconclusive: 37.9 µM [inhibitor, partial curve, poor fit].

**Q.** How did the Potency turn out when `O=C(Oc1ccc2c(c1)OCO2)C12CC3CC(CC(C3)C1)C2` was run?
**A.** Its Potency is inconclusive: 19 µM [inhibitor, single point].

**Q.** For `COc1ccc(C(=O)OCC(=O)Nc2ccc3[nH]c(=O)[nH]c3c2)c(OC)c1OC`, which Potency is on record?
**A.** Its Potency is “inactive”.

**Q.** Which Potency does the source give for `COCC1CCCN(C(=O)c2ccc3nc(Cc4cccc(Cl)c4)oc3c2)C1` (stereo unspecified) here?
**A.** The Potency was active: 13.5 µM.

**Q.** For `COCCNC(=O)c1ccc2c(=O)n(CCc3ccccc3)c(SCC(=O)CC(=O)OC)nc2c1`, which Potency is on record?
**A.** Its Potency is “inactive”.

**Q.** With `O=C(c1ccc(F)cc1)c1cc2ccccc2o1` as the compound, how does the Potency read?
**A.** The Potency was active: 10.7 µM.

**Q.** For `CCCCC1CCC(C(=O)OCC(=O)N(CCOC)c2c(N)n(Cc3ccccc3)c(=O)[nH]c2=O)CC1` (stereo unspecified), which Potency is on record?
**A.** Its Potency is “inactive”.

**Q.** For `Cc1ccc(NC(=O)CCOc2ccccc2)cc1`, which Potency is on record?
**A.** The Potency was active: 15.1 µM and active: 13.5 µM.

**Q.** Which Potency does the source give for `Cc1nc(N2CCCC2)ncc1C(=O)NCc1cccc(Cl)c1` here?
**A.** Its Potency is “inactive”.

**Q.** For `COc1ccc(NC(=O)c2cccc(N3CCCS3(=O)=O)c2)cc1OC`, which Potency is on record?
**A.** Its Potency is inconclusive: 21.3 µM [inhibitor, partial curve, poor fit].

**Q.** How did the Potency turn out when `COC(=O)c1ccc(N2NC(=O)/C(=C/c3ccc(OC)c(OC)c3)C2=O)cc1` was run?
**A.** The Potency was inconclusive: 37.9 µM [inhibitor, partial curve, poor fit].

**Q.** With `COC(=O)c1ccc(NC(=O)CC2C(=O)N(c3cccc(OC)c3)C(=O)N2Cc2ccco2)cc1` (stereo unspecified) as the compound, how does the Potency read?
**A.** The Potency was “inactive”.
